Results reported in PubChem BioAssay (NCATS).
This list was built around the results that the source calls inconclusive (neither active nor inactive); the mix of calls is not that of the screen. Potencies of inconclusive entries are left out as doubtful fits. Activity calls are given as the source filed them. The call rests on the fitted dose curve; in most records, active means well fitted inhibition curve with a large enough effect; inconclusive means small, poorly fitted or top-dose-only effect; inactive means flat fitted curve, though single readings scatter.

Assay: qHTS for Inhibitors of Plasmodium falciparum (7G8) proliferation (AID 504316); further: nearly all actives have a fitted effect of over 65% in size
Conditions: P. falciparum 7G8 in erythrocytes, SYBR Green DNA, 72 h; series mostly up to 6.7 µM
Procedure, shortened: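 Erythrocytes infected with P. falciparum line (0.3% parasitemia, 2.5% hematocrit final) incubated with compounds 72 h at 37 °C, 5% CO2; SYBR Green lysis buffer added, fluorescence read next day. Normalized to 0.29 uM artemisinin and DMSO.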
Potency means the concentration at half of the fitted maximal effect; tags describe the fitted curve by direction and shape.

Structure (SMILES) | Potency
COC(=O)[C@@H]1[C@@H](C)N(Cc2ccccc2)C(=O)N[C@H]1c1ccccc1 | inactive
COC(=O)C1=C(C(=O)OC)[C@@H]2N(C)c3ccccc3[C@@]23C[C@@H](C(=O)OC)N(C(=O)c2cccs2)C3=N1 | inactive
COC(=O)N[C@@H](c1ccc(Br)cc1)C(C(=O)OC)C(=O)OC | inactive
CCN(CC)CCCN1C=C2C(=O)C(C)(OC(=O)CCC(=O)OC)C(=O)C=C2C=C1C1CC1 (stereo not given) | inactive
CCN1C(=O)N[C@@H](c2ccccc2)C(C(=O)OC)=C1C | inactive
CCCNC(=O)OC[C@H]1O[C@H](CCON=C2[C@H]3CCn4c(=O)n(-c5ccccc5)c(=O)n4[C@@H]3[C@H](O)[C@@H]3O[C@H]23)C=C[C@H]1Oc1ccc(OC)cc1 | inconclusive [inhibitor, single point]
CC(=O)OC[C@H]1O[C@H](CCON=C(C)CCN2CCCCc3nc(C)c(C)cc32)C=C[C@H]1OC(C)=O | inconclusive [inhibitor, single point]
COc1ccc(C(=O)[C@]2(C)C=C(c3ccc(OC)cc3)[C@H](C)C2)cc1 | inconclusive [inhibitor, partial curve, poor fit]
COC(=O)CC1c2ccccc2C(Cc2ccc(OC)cc2)C(C)N1C(=O)OC (stereo not given) | inactive
COC(=O)CCC(=O)OC1(C)C(=O)C2=CN(CC3CC3)C(c3ccc(OC)cc3)=CC2=C(Br)C1=O (stereo not given) | inactive
COC(=O)CCC(=O)OC1(C)C(=O)C=C2C=C(C3CC3)N(CC(C)C)C=C2C1=O (stereo not given) | active: 1.51 µM
CC1(OC(=O)C2CCCC2)C(=O)C=C2C=C(c3ccsc3)N(C(CO)CO)C=C2C1=O (stereo not given) | inactive
COC(=O)[C@@H]1[C@@H](C)N(CCc2cc(OC)c(OC)c(OC)c2)C(=O)N[C@H]1c1ccccc1 | inconclusive [inhibitor, single point]
COC(=O)N[C@@H](c1cccc(F)c1)[C@@H](C)[N+](=O)[O-] | inactive
C[C@H]1CCCC(=O)N[C@@H](c2ccccc2)[C@@H](C)CCCC(=O)N[C@@H]1c1ccccc1 | inactive
O=C1CCCC1C(O)c1ccc2ccccc2c1 (stereo not given) | inactive
CCN(CC)CC(O)CN1CCCCc2nc(C)c(C)cc21 (stereo not given) | inconclusive [inhibitor, single point]
CCCCCCCc1cc2ccccc2c2c(C(C)=O)c(-c3ccccc3)c(C(=O)OC)n12 | inactive
COc1cccc([C@H]2Oc3ccc(OC)cc3C(=NO[C@H](C)CN3CCCc4nc(C)c(C)cc43)[C@H]2O)c1 | inconclusive [inhibitor, single point]
COCCN1C(=O)N[C@@H](c2ccco2)C(C(=O)OC)=C1C | inactive

Structure (SMILES) | Potency
C=CCN1C=C2C(=O)C(C)(OC(=O)CCc3ccccc3)C(=O)C=C2C=C1c1ccc(C#N)cc1 (stereo not given) | inconclusive [inhibitor, single point]
CC=COC(=O)N[C@@H](c1ccccc1)[C@]1(C(C)=O)CCCC1=O | inactive
CCN1C(=NCCCOC(C)C)N[C@H](c2ccccc2)[C@H](C(=O)OC)[C@H]1C | inactive
CCCCc1nc2c(c3c1C[C@H](C)OC3)CN(C(=O)NCCCC(=O)OCC)CC2 | inconclusive [inhibitor, partial curve, poor fit]
CCOC(=O)CN1C(=O)N[C@@H](c2cccs2)C(C(=O)OC)=C1C | inactive
COCCN1C(=O)N[C@@H](c2cccc(C(F)(F)F)c2)C(C(=O)OC)=C1C | inactive
c1ccc(CCc2nc(-c3ccccc3)oc2Nc2ccc3ccccc3c2)cc1 | inactive
C[C@@H]1CC2CCCC2[C@]2(O1)C(=O)Nc1ccccc12 (stereo not given in full) | inconclusive [inhibitor, single point]
C#CC1(O)C2C=C(OC)C(=O)C1C(c1ccccc1)C2C (stereo not given) | inconclusive [inhibitor, partial curve, poor fit]
COc1cccc([C@H](O)Cn2cc(-c3ccc(CON=C(C)C)cc3)nn2)c1 | inactive
COC[C@@H](O)[C@H]1OCc2cc(OC)ccc2[C@H]1C=Cc1ccccc1 | inconclusive [inhibitor, partial curve]
N#CCCn1cnc2c1NC=NC2Cl (stereo not given) | inactive
CCOC(=O)c1c(C(=O)OCC)c2c3ccccc3cc(C)n2c1C(=O)OC | inconclusive [inhibitor, single point]
COC(=O)NC(C=Cc1ccccc1)C(C(C)=O)C(=O)OC (stereo not given) | inactive
COc1cc2c(cc1OC)CSC1C(=O)N(C)C(SC2)C(=O)N1C | inconclusive [inhibitor, single point]
COc1cc(O)c(C(=O)C=Cc2ccccc2)c(O)c1 | inconclusive [inhibitor, partial curve]
CC1(OC(=O)C2CCCC2)C(=O)C=C2C=C(C3CC3)OC=C2C1=O (stereo not given) | inactive
Cc1ccc(S(=O)(=O)OC[C@@H]2CN3[C@H](c4ccc(Br)cc4)[C@H](C)CC[C@H]3C(=O)O2)cc1 | inactive
CC1(OC(=O)CCc2ccccc2)C(=O)C=C2C=C(c3ccsc3)OC=C2C1=O (stereo not given) | inactive
COC(=O)[C@H](COC(C)(C)C)NC(=O)O[C@@H]1C(=O)c2cc(Br)ccc2O[C@H]1c1ccc2c(c1)OCO2 | inactive
